In article PMC7838300:
These are yes or no findings as the source states them, for the method shown. In cells and extracts the contact can be indirect. Some binding calls cover weakened binding; strength is not graded here. For part of these data: Sequences can lack the tags named with a protein.

Protein sequences, listed by entry. Tags and fused reporters are not part of them. Lines headed by an entry give the natural chain unless they say otherwise; changes in a name come on top.
UniProt P27694: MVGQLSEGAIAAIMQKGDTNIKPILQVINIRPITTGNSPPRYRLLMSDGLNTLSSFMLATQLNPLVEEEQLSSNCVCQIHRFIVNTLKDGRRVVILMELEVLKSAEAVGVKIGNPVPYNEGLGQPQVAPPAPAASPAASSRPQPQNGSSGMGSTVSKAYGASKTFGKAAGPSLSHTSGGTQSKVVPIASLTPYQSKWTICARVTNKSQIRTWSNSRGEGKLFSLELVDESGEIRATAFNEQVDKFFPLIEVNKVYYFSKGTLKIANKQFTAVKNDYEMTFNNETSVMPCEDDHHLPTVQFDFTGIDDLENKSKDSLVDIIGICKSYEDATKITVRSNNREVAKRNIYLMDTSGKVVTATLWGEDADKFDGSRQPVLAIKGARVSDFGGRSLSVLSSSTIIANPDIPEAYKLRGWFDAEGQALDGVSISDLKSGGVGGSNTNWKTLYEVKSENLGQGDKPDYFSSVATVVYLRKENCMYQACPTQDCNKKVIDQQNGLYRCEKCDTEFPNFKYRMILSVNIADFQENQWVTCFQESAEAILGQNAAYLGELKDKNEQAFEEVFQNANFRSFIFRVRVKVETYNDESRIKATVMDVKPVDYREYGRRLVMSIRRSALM

Experiments:
Assay in all cases: co-IP; GFP-Trap magnetic agarose beads, lysates of transfected 293FT cells, Benzonase-treated, 200 mM NaCl, 2 mM EDTA, 2 h at 4 °C, western blotting
[1] = target: GFP-tagged R41E/Y42F RPA1 (UniProt P27694)
[2] = target: T1, GFP-tagged RMI1 with motif 5 deleted (human) (UniProt Q9H9A7)
T1 sequence: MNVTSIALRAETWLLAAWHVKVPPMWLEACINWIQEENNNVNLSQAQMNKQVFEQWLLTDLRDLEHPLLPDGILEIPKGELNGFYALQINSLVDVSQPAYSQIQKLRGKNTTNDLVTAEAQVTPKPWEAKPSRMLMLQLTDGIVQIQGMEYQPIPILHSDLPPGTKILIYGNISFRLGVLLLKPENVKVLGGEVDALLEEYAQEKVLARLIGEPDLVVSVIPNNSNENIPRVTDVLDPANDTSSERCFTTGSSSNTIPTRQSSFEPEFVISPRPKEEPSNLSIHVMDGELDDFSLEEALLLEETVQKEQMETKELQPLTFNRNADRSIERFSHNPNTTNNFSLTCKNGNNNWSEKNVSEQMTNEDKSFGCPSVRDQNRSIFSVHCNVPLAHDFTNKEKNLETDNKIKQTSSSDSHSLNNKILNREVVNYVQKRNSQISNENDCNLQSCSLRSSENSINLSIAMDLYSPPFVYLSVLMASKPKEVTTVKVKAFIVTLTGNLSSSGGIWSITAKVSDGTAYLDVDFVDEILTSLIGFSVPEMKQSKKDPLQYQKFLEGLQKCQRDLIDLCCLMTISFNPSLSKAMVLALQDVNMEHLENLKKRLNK

GFP-tagged WT RPA1 = GFP-tagged WT RPA1 (UniProt P27694)
[3] = target: T2, GFP-tagged wild-type RMI1 (human) (UniProt Q9H9A7)
T2 sequence: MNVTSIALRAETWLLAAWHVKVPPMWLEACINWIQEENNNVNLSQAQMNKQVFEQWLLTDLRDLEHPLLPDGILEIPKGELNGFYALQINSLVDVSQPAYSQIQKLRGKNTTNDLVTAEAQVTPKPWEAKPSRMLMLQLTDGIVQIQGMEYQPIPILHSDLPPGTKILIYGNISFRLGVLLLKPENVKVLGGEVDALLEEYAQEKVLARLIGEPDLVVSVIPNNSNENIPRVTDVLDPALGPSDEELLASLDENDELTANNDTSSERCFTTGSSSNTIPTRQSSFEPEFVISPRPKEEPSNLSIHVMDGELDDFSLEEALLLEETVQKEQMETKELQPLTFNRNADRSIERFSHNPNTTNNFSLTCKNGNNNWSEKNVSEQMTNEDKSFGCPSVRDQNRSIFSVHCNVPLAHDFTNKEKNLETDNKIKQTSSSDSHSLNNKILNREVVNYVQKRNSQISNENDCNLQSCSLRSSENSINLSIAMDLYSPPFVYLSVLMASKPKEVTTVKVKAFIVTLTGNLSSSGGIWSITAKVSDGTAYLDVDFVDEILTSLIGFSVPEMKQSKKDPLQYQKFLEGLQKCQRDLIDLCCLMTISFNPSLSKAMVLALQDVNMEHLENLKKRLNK

B1: RMI2, endogenous in 293FT cells (protein, UniProt Q96E14-1 1-147)
chain: MAAAADSFSGGPAGVRLPRSPPLKVLAEQLRRDAEGGPGAWRLSRAAAGRGPLDLAAVWMQGRVVMADRGEARLRDPSGDFSVRGLERVPRGRPCLVPGKYVMVMGVVQACSPEPCLQAVKMTDLSDNPIHESMWELEVEDLHRNIP
**Q.** Which binding [1] does the source give for B1 here?
**A.** Its binding is “no binding”.

**Q.** What about the binding [2] of the same binder?
**A.** Its binding is “binds”.

**Q.** And the binding (GFP-tagged WT RPA1)?
**A.** Its binding is “binds”.

**Q.** And the binding [3]?
**A.** Its binding is “binds”.

B2: TOP3A, endogenous in 293FT cells (protein, UniProt Q13472-1 1-1001)
chain: MIFPVARYALRWLRRPEDRAFSRAAMEMALRGVRKVLCVAEKNDAAKGIADLLSNGRMRRREGLSKFNKIYEFDYHLYGQNVTMVMTSVSGHLLAHDFQMQFRKWQSCNPLVLFEAEIEKYCPENFVDIKKTLERETRQCQALVIWTDCDREGENIGFEIIHVCKAVKPNLQVLRARFSEITPHAVRTACENLTEPDQRVSDAVDVRQELDLRIGAAFTRFQTLRLQRIFPEVLAEQLISYGSCQFPTLGFVVERFKAIQAFVPEIFHRIKVTHDHKDGIVEFNWKRHRLFNHTACLVLYQLCVEDPMATVVEVRSKPKSKWRPQALDTVELEKLASRKLRINAKETMRIAEKLYTQGYISYPRTETNIFPRDLNLTVLVEQQTPDPRWGAFAQSILERGGPTPRNGNKSDQAHPPIHPTKYTNNLQGDEQRLYEFIVRHFLACCSQDAQGQETTVEIDIAQERFVAHGLMILARNYLDVYPYDHWSDKILPVYEQGSHFQPSTVEMVDGETSPPKLLTEADLIALMEKHGIGTDATHAEHIETIKARMYVGLTPDKRFLPGHLGMGLVEGYDSMGYEMSKPDLRAELEADLKLICDGKKDKFVVLRQQVQKYKQVFIEAVAKAKKLDEALAQYFGNGTELAQQEDIYPAMPEPIRKCPQCNKDMVLKTKKNGGFYLSCMGFPECRSAVWLPDSVLEASRDSSVCPVCQPHPVYRLKLKFKRGSLPPTMPLEFVCCIGGCDDTLREILDLRFSGGPPRASQPSGRLQANQSLNRMDNSQHPQPADSRQTGSSKALAQTLPPPTAAGESNSVTCNCGQEAVLLTVRKEGPNRGRQFFKCNGGSCNFFLWADSPNPGAGGPPALAYRPLGASLGCPPGPGIHLGGFGNPGDGSGSGTSCLCSQPSVTRTVQKDGPNKGRQFHTCAKPREQQCGFFQWVDENTAPGTSGAPSWTGDRGRTLESEARSKRPRASSSDMGSTAKKPRKCSLCHQPGHTRPFCPQNR
**Q.** Which results are given for B2?
**A.** binding [1]: no binding; binding (GFP-tagged WT RPA1): binds
